Reference: PubChem BioAssay AID1508624 (National Center for Advancing Translational Sciences (NCATS), 2021)
The whole screen tested about 48,000 compounds, of which about 120 (0.25%) were called active. About 4% were inconclusive and are not listed. The call rests on the fitted dose curve; in most records, active means well fitted activation curve with a large enough effect; inconclusive means small, poorly fitted or top-dose-only effect, or another doubt; inactive means no such curve, though single readings can be large or run the other way. This is one part of the list.

Test: Primary qHTS for Identification of Small Molecule Activators of Huntingtin-Antisense Promoter Activity; further: nearly all actives have a fitted effect of over 55% in size
Settings: HEK293 HTT-AS promoter firefly luciferase reporter, 24 h; series mostly up to 57.5 µM; activity change, positive = activation: at the top concentration
In short: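 HEK293 cells carrying firefly luciferase reporters were seeded at 2,500 per well in Opti-MEM and cultured for 24 h. They were then treated with compounds at up to 57.5 uM final for 24 h at 37 degrees C before Dual-Glo luminescence readout.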

Activity change, positive = activation, inactive:
Fc1ccccc1N1CCN(c2nc3ccccc3c3nc(-c4ccccc4)nn23)CC1 -4.1%
CSc1ccc(-c2nnc(NC(=O)c3ccc4c(c3)OCCO4)o2)cc1 2.07%
Cc1ccc(-c2cn3c(n2)sc2cc(C(=O)NCCCc4ccccc4)ccc23)c(C)c1 1.34%
CCCCN(CCCNC(=O)c1cc(Nc2ccc(OC)c(OC)c2)nc2ccccc12)c1ccccc1 -13.5%
CC1CCCN(S(=O)(=O)c2ccc3c(c2)c(=O)nc2ccccn23)C1 (stereo unspecified) 0%
CC(=O)O[C@@]12CO[C@@H]1C[C@H](O)[C@@]1(C)C(=O)[C@H](O)C3=C(C)[C@@H](OC(=O)[C@H](O)[C@@H](NC(=O)OC(C)(C)C)c4ccccc4)C[C@@](O)([C@@H](OC(=O)c4ccccc4)[C@H]21)C3(C)C -34.2%
Cc1cc(C)c(S(=O)(=O)NCC(c2ccc(N(C)C)cc2)N2CCOCC2)c(C)c1 (stereo unspecified) -18.3%
CCc1cccc(NC(=O)CN(C)S(=O)(=O)c2ccc3c(c2)CCCN3C(C)=O)c1 -17%
CCOC(=O)c1cnc2c(C)c(Cl)ccc2c1Nc1ccc(N2CCOCC2)cc1 15.5%
CC(CCc1ccccc1)NC(=O)Cn1c(=O)nc(-c2ccccc2)c2ccccc21 (stereo unspecified) 8.49%
Cc1ccccc1Nc1c(-c2cccnc2)nc2ccc(Cl)cn12 -8.31%
CCc1nn2c(=O)c(S(=O)(=O)Nc3ccc(Cl)cc3)c(C)nc2s1 -25.8%
CCCCN(C)CCNC(=O)CN1C(=O)CSc2ccc(S(=O)(=O)N3CCOCC3)cc21 -0.509%
O=C(CSc1nc(-c2ccc(F)cc2)[nH]c1-c1ccc(F)cc1)Nc1ccc2c(c1)OCO2 -48.7%
O=C(Cc1ccc(-c2ccccc2)cc1)NCCS(=O)(=O)N1CCN(c2ccccc2)CC1 -19.9%
COc1cc(NC(=O)CSc2ccc(-c3ccccn3)nn2)cc(OC)c1 -36.1%
Cc1ccc(CNC(=O)c2ccc(CS(=O)Cc3cccc(Cl)c3)o2)cc1 (stereo unspecified) -21.2%
COc1ccc(-c2cc(C(F)(F)F)nc(SCC(=O)NCC(C)C)n2)cc1OC -10%
COc1ccccc1NC(=O)C1=C(C)Nc2nc3ccccc3n2C1c1cccc(OC)c1OC (stereo unspecified) -11.6%
Cc1ccn2c(=O)cc(COc3cccc(NC(=O)Nc4cccc(Cl)c4C)c3)nc2c1 -5.55%
O=C(NCCCN1CCOCC1)c1ccc2c(c1)N(Cc1cccc(Cl)c1)C(=O)c1ccccc1S2 -20.3%
O=C(Cn1cc(S(=O)(=O)c2ccccc2)c(=O)c2cc(Cl)ccc21)Nc1ccc2c(c1)OCO2 3.94%
COc1ccc(NC(C)=O)cc1NC(=O)CN1CCN(c2ccc(F)cc2)CC1 -15.7%
O=S(=O)(c1cccc2ccccc12)N1CCN(c2ccc(Cl)c(Cl)c2)CC1 -6.26%
CCOc1ccc(NC(=O)CSc2nnc(CNC(=O)C34CC5CC(CC(C5)C3)C4)n2CC)cc1 -27.7%
CCOC(=O)c1ccccc1NC(=O)Nc1cc2c(cc1N1CCCC1)n(C)c(=O)n2C -16.1%
Cc1cc2oc(C(=O)Nc3cccc(-c4nc5ccccc5o4)c3)c(C)c2cc1C 3.57%
COc1ccc(-n2nc3cc(C)c(NC(=O)Cc4ccc(Cl)cc4)cc3n2)cc1 9.21%
O=C(CSc1nc(=O)n(Cc2ccncc2)c2c1CCC2)Nc1ccc(F)cc1F -3.95%
CCCN1CN=C(NS(=O)(=O)c2ccc(NC(C)=O)cc2)NC1 -0.211%
CCc1ccc(NC(=O)CSc2nc(-c3cccc(OC)c3)nc3c2Cc2c(CO)cnc(C)c2O3)cc1 -9.22%
CC(Oc1ccccc1)C(=O)Nc1ccccc1C(=O)OCc1cc(=O)n2nc(C(C)C)sc2n1 (stereo unspecified) 6.6%
Cc1c(C(=O)N(C)C)sc2c1c(=O)n(-c1ccc(Cl)c(Cl)c1)c(=O)n2CC(=O)N1CCCCC1C (stereo unspecified) -10.1%
COc1cc(C(=O)N(Cc2ccc(N(C)C)cc2)CC2CCCO2)cc(OC)c1OC (stereo unspecified) -8.44%
CCCC12CN3CC(CCC)(CN(C1)C3c1ccc(OC(C)C)cc1)C2=O (stereo unspecified) 4.13% [at 11.5 µM, percent change from vehicle, -100% = no light]
COc1cccc(Cn2c(C)c(CNC3CCCCC3)c(C(=O)O)c2C)c1 -7.16%
COc1ccc(-c2noc(-c3ccc(N4CCN(c5ccccc5OC)CC4)c([N+](=O)[O-])c3)n2)cc1 -4.3%
CCCN1CCN(CC2=C(C(=O)OCC)C(c3ccc(OC(C)C)cc3)NC(=O)N2)CC1 (stereo unspecified) -7.26%
CSc1nc2c(sc3ccccc32)c(=O)n1Cc1ccc(C)cc1 -1.6%
CCn1c(=O)c(=O)n(CC)c2cc(N3CCCCC3)c(NC(=O)c3ccccc3OC)cc21 -9.28%
CCOc1ccc(-c2nc(CSCC(=O)NCCc3ccc(OCC)c(OCC)c3)c(C)o2)cc1 -48.5%
COc1ccccc1-c1c(C)nn2c(N3CCN(c4ccccc4)CC3)cc(C)nc12 -11.7%
COc1ccc(OC)c(CNC(=O)CN2N=C(c3ccc(Cl)cc3)CCC2=O)c1 -3%
O=C(NCCc1ccc(Cl)cc1)C(=O)NCC(c1cccs1)S(=O)(=O)c1cccs1 (stereo unspecified) -41.9%
O=C(Nc1ccc2nc(SCC(=O)N3CCOCC3)sc2c1)c1ccc(Br)cc1 -19.8%
COc1ccc(C(=O)Nc2cc(-c3nc4ccccc4s3)ccc2OC)cc1 -3.25%
CCC(C)NC(=O)CSc1c2c(nc3cc(Cl)ccc13)CCCC2 (stereo unspecified) -5.74%
C=Cc1ccc(Cn2c(C(=O)O)c(CNC3CCCCC3)c3ccc(OC)cc32)cc1 -22.7%
CCCOC1(C(F)(F)F)NC(=O)N(c2cccc(Cl)c2)C1=O (stereo unspecified) -22.7%
COc1cccc(CNC(=O)C(=O)NCC(c2ccc3c(c2)OCO3)N2CCOCC2)c1 (stereo unspecified) -22.7%
COC(=O)c1ccc(NC(=O)CCc2c(C)nc3c(c(C)nn3C(C)(C)C)c2C)cc1 -38%
Nc1ncnc2c1ncn2[C@@H]1O[C@H](CO)[C@@H](O)[C@H]1O -13.3%
CCN(C(=O)CSc1nc(-c2ccccc2)no1)c1ccccc1 -11%
C=C1C(=C/C=C2\CCC[C@]3(C)[C@@H]([C@H](C)/C=C/[C@@H](O)C4CC4)CC[C@@H]23)C[C@@H](O)C[C@@H]1O -22.8%
Cc1ccc2occ(-c3cc(-c4ccc(F)cc4)nc4c3COc3ccc(F)cc3-4)c(=O)c2c1 -6.67%
Cc1ccccc1CSc1nc(-c2cccc(F)c2)nc2c1Cc1c(CO)cnc(C)c1O2 -8.63%
